{
  "source": "PubChem BioAssay AID485344",
  "about": "(National Center for Advancing Translational Sciences (NCATS), 2010)",
  "note": "In all, about 340,000 compounds went through this assay and about 6,900 (2%) were called active. Cut-off read from the data, not from the text of the source: active = inhibition above about 30%; inactive = below that, where a call was filed. This is a selection; strong and weak results do not stand in their true shares. Entries without a call were filed so in the source.",
  "data": [
    {"biological_target": "D(2) dopamine receptor (Homo sapiens) (UniProt P14416)", "sequence (P14416 whole entry, looked up)": "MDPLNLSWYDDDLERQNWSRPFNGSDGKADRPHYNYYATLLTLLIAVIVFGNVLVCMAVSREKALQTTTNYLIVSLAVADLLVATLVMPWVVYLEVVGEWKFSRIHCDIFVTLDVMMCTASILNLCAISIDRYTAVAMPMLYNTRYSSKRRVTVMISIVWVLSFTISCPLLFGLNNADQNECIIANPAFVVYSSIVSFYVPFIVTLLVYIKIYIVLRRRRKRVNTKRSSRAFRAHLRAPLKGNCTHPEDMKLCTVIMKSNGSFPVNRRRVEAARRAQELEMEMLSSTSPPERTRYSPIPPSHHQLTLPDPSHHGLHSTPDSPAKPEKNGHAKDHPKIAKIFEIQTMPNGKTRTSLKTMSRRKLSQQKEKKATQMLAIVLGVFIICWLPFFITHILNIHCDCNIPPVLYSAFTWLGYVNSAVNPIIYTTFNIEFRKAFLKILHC", "test": "HTS Assay for Allosteric Antagonists of the Human D2 Dopamine Receptor: Primary Screen for Antagonists; note: 0% is about no effect", "conditions": "HEK293 TREx D2 cells, calcium flux, dopamine EC80; at 10 µM; stronger effect = higher value", "in_short": "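HEK293 T-REx D2 cells, tet-induced, calcium dye no-wash. Cpd pintool add, 180 s kinetic, then EC80 DA, 180 s kinetic. Ca flux read.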", "values": [
      {"smiles": "CC(C)(C)c1ccc(C2Sc3ccccc3NC3=C2C(=O)c2ccccc23)cc1", "note": "(stereo not given)", "inhibition": "7.92%"},
      {"smiles": "CCOc1ccccc1NC(=O)Cn1c(=O)n(CCC(C)C)c(=O)c2cccnc21", "inhibition": "-23.3%"},
      {"smiles": "Cc1nc2ccccc2n1CCc1nc2c3ccccc3nc(SCc3cccc(F)c3)n2n1", "inhibition": "10.7%"},
      {"smiles": "Cc1cc(C)cc(OCCn2c(C3CC(=O)N(c4ccccc4Cl)C3)nc3ccccc32)c1", "note": "(stereo not given)", "inhibition": "-7.23%"},
      {"smiles": "O=C(NNC(=S)Nc1ccccc1Cl)c1ccccc1Br", "inhibition": "active: 53.4%"},
      {"smiles": "CC1=C(C(=O)Nc2ccccc2)C(c2ccccc2C)n2ncc(C(=O)Nc3ccccc3)c2N1", "note": "(stereo not given)", "inhibition": "9.83%"},
      {"smiles": "CCCNC(=O)c1cc2nc(-c3ccc(Br)cc3)cc(C(F)(F)F)n2n1", "inhibition": "-3.41%"},
      {"smiles": "CCOc1cccc2cc(-c3nc4sc5c(c4c(=O)[nH]3)CCC(C(C)(C)C)C5)c(=O)oc12", "note": "(stereo not given)", "inhibition": "9.37%"},
      {"smiles": "CCOc1ccc(-n2c(SCc3nc(-c4ccc(OC)cc4)no3)nnc2-c2ccncc2)cc1", "inhibition": "0.582%"},
      {"smiles": "COc1ccc(Br)cc1CNC(=O)c1cc(=O)[nH]c2ccc(S(=O)(=O)N3CCCC3)cc12", "inhibition": "10.6%"},
      {"smiles": "COc1ccc(Br)cc1CNC(=O)c1cc2ccccn2n1", "inhibition": "-0.181%"},
      {"smiles": "O=c1[nH]c(CN2CCN(Cc3ccccc3)CC2)nc2scc(-c3ccccc3)c12", "inhibition": "active: 68.8%"},
      {"smiles": "CCc1nn(C(C)C(=O)NCCN2CCN(c3cccc(C)c3C)CC2)c(=O)c2cc3occc3n12", "note": "(stereo not given)", "inhibition": "active: 51.5%"},
      {"smiles": "CCOC(=O)c1cc(S(=O)(=O)Nc2ccc(Br)c(C)c2)[nH]n1", "inhibition": "-1.32%"},
      {"smiles": "COc1cc(C2c3c(oc4cc(C)c(C)cc4c3=O)C(=O)N2CCCN2CCOCC2)ccc1O", "note": "(stereo not given)", "inhibition": "-9.07%"},
      {"smiles": "Cc1ccc2c(c1)c1c(c(=O)n(-c3cccc(Cl)c3)c(=O)n1CC(=O)N1CCCC1)n2C", "inhibition": "-13.7%"},
      {"smiles": "Cc1c(C(=O)N2CCC(c3nc4ccccc4s3)CC2)oc2cc(Br)ccc12", "inhibition": "-3.49%"},
      {"smiles": "COc1ccc(C)cc1NC(=O)CN1C(=O)COc2ccc(S(=O)(=O)N3CCC(C)CC3)cc21", "inhibition": "-2.81%"},
      {"smiles": "Cc1c(Cl)cccc1NC(=O)C(C)n1c(=O)cc(C)c2c(C)nn(-c3ccccc3)c21", "note": "(stereo not given)", "inhibition": "-18.5%"},
      {"smiles": "CCOc1ccc(-n2c(=O)c3c(C)c(C)sc3n(Cc3ccccc3C)c2=O)cc1", "inhibition": "-21.6%"},
      {"smiles": "COc1ccc2c(c1)CCc1c(C(=O)Nc3ccc(C#N)cc3)noc1-2", "inhibition": "-7.81%"},
      {"smiles": "COc1ccc(-n2c(SCc3ccccc3)nc3c([nH]c4ccccc43)c2=O)cc1", "inhibition": "-3.84%"},
      {"smiles": "COc1cccc(CNC(=O)Cn2nc(N3CCN(c4ccccc4OC)CC3)ccc2=O)c1", "inhibition": "4.32%"},
      {"smiles": "Cc1ccc(OCCOCCn2c(-c3ccc(Cl)cc3)nc3ccccc3c2=O)cc1", "inhibition": "10.4%"},
      {"smiles": "COc1cccc(CNC(=O)CCc2c(C)c3ccc(O)c(C)c3oc2=O)c1", "inhibition": "10.3%"},
      {"smiles": "COc1ccc(F)cc1C(=O)C1CCCN(Cc2c[nH]c3ccccc23)C1", "note": "(stereo not given)", "inhibition": "active: 67.1%"},
      {"smiles": "CCCCN(CC)CCCNC(=O)c1ccc2c(c1)NC(=O)CN2C", "inhibition": "-28.2%"},
      {"smiles": "Cc1cc(C)cc(C(=O)N2CC(=O)Nc3ccc(Br)cc3C2c2ccccc2)c1", "note": "(stereo not given)", "inhibition": "-24.7%"},
      {"smiles": "CCCCOc1ccc(C2C(=O)N(C3CCCCC3)CC(=O)N2CCCC)cc1", "note": "(stereo not given)", "inhibition": "-4.89%"},
      {"smiles": "Cc1ccc(NC(=O)Cn2c(-c3nonc3N)nc3ccccc32)c(Br)c1", "inhibition": "-21.1%"},
      {"smiles": "CSc1cccc(NC(=O)C2CCCN(S(=O)(=O)c3cnc[nH]3)C2)c1", "note": "(stereo not given)", "inhibition": "active: 30.6%"},
      {"smiles": "CCc1ccc2oc(C(=O)NCc3ccccc3)cc(=O)c2c1", "inhibition": "-14.1%"},
      {"smiles": "CN1C(=O)C2(c3ccccc31)N(c1ccc(Br)cc1)C(=O)CS2(=O)=O", "note": "(stereo not given)", "inhibition": "-1.1%"},
      {"smiles": "COc1ccc(C(=O)NC(=S)Nc2ccccc2N2CCOCC2)cc1[N+](=O)[O-]", "inhibition": "active: 39.1%"},
      {"smiles": "COc1ccc2c(c1)-c1nc(NC(=O)c3cc(OC)c(OC)c(OC)c3)sc1CC2", "inhibition": "-0.605%"},
      {"smiles": "O=c1[nH]c(C2CCCN(S(=O)(=O)c3ccccc3)C2)nc2c1nnn2Cc1ccc(OC(F)(F)F)cc1", "note": "(stereo not given)", "inhibition": "-21%"},
      {"smiles": "O=C(C1CCC(Cn2c(=O)c3sccc3n(Cc3ccc(F)cc3)c2=O)CC1)N1CCOCC1", "note": "(stereo not given)", "inhibition": "-16.6%"},
      {"smiles": "CN1C(=O)c2[nH]nc(-c3ccc(F)cc3)c2C1c1cccc(O)c1", "note": "(stereo not given)", "inhibition": "-10.4%"},
      {"smiles": "Cn1cc(-c2cc3n(n2)CCC(=O)N3CCCC(=O)NCc2ccccc2Cl)c2ccccc21", "inhibition": "-10%"},
      {"smiles": "Cc1cc(C)cc(Nc2nc3cc(Cl)c(Cl)cc3nc2-n2nc(C)cc2C)c1", "inhibition": "-0.917%"},
      {"smiles": "CC(C)CCn1c(SCc2cccc(F)c2)nc2ccsc2c1=O", "inhibition": "-7.86%"},
      {"smiles": "CCOC(=O)c1cccc(NC(=O)[C@H](CSCc2ccccc2)N2Cc3ccccc3C2=O)c1", "inhibition": "-10.1%"},
      {"smiles": "CCOC(=O)c1c(NC(=O)c2ccc(F)cc2)sc2c1CCC(CC)C2", "note": "(stereo not given)", "inhibition": "-18.9%"},
      {"smiles": "CCOc1ccc(-c2nc3ccccc3c(=O)o2)cc1", "inhibition": "0.164%"},
      {"smiles": "C#CC(C)(CC)NC(=O)Cn1nnc(-c2ccc(OCc3c(F)cccc3Cl)cc2)n1", "note": "(stereo not given)", "inhibition": "3.87%"},
      {"smiles": "COc1cc(NC(=O)CN(c2cc(C)cc(C)c2)S(=O)(=O)c2c(C)[nH]c(=O)[nH]c2=O)cc(OC)c1", "inhibition": "-8.05%"},
      {"smiles": "Cc1ccc(-n2c(=O)c3ccc(C(=O)NCc4ccccc4Cl)cc3n(CC(=O)Nc3ccc(C)cc3C)c2=O)cc1", "inhibition": "-7.21%"},
      {"smiles": "O=C(CSc1ncc2c(n1)-c1ccccc1N(Cc1ccc(F)cc1)S2(=O)=O)NCCc1ccccc1", "inhibition": "2.3%"},
      {"smiles": "Cc1ccccc1C(=O)NCCc1sc(-c2ccc(Cl)cc2)nc1C", "inhibition": "17.8%"},
      {"smiles": "COc1ccc(CNC(=O)Cc2csc3nc(-c4ccc(F)cc4)cn23)cc1", "inhibition": "-14.6%"},
      {"smiles": "Cc1[nH]n2c(=O)c3c(nc2c1-c1ccc(Cl)cc1)CCC3", "inhibition": "active: 74.8%"},
      {"smiles": "COc1ccc(-c2nc(SCC(=O)NC3CCCC3)c(-c3ccc(C)cc3)[nH]2)cc1OC", "inhibition": "15.1%"},
      {"smiles": "CCOc1ccc(NC(=O)C(=O)NCC(c2cccnc2)N2CCc3ccccc32)cc1", "note": "(stereo not given)", "inhibition": "-0.149%"},
      {"smiles": "COc1ccc(C2CC(=O)N(CC(=O)Nc3ccc(C)c(Cl)c3)c3ccccc3S2)cc1OC", "note": "(stereo not given)", "inhibition": "12.2%"},
      {"smiles": "CCOC(=O)C1CCCN(S(=O)(=O)c2ccc3c(c2)oc(=O)n3C)C1", "note": "(stereo not given)", "inhibition": "13.9%"},
      {"smiles": "COc1ccc(N(Cc2cccs2)C(=O)Nc2cccc(Cl)c2)cc1", "inhibition": "10.1%"},
      {"smiles": "COc1cccc(NC(=O)CCc2c(C)nc3ncnn3c2C)c1", "inhibition": "-19.4%"},
      {"smiles": "Cc1ccccc1NC(=O)CCN1C(=O)c2ccccc2Sc2ncccc21", "inhibition": "20.2%"},
      {"smiles": "COc1ccc(CNC(=O)c2cnc3sc(N4CCCC4)nn3c2=O)c(OC)c1", "inhibition": "9.89%"},
      {"smiles": "CCc1ccc(Nc2nnc(-n3nc(C)cc3C)c3ccccc23)cc1", "inhibition": "19.3%"}
    ]}
  ]
}
